Read counts are not given, so values of variants with three or more changes are uncertain.
B1: LINE1-mini (parent)
chain: GGCAGAGCUCAACACAGCGUGGCAAAGUGGCUGUGGCUAGACUGCC

Variants of: B1
Experiment: self-cleavage, relative activity (ratio to wild type); higher = more cleavage; in vitro, sequencing; the parent is a self-cleaving ribozyme
A25G A39G A41C showed a self-cleavage of 0.04.
U28G U34A C37A C45A showed a self-cleavage of 0.
A26G U28A C45G showed a self-cleavage of 0.72.
For A25G G30U G33U G35C A41U C42U, the self-cleavage was 0.17.
In the case of G27A G30A U38A A39G, the self-cleavage is reported as 0.07.
With A24G A26C C37A the self-cleavage was 0.02.
U28G G30C U32C C37U G40U showed a self-cleavage of 0.01.
Work on A25C G33U G44A yielded a self-cleavage of 0.02.
Variant G27A G33C C45G has a self-cleavage of 0.05.
Variant A24U G33U G36U G44A has a self-cleavage of 0.04.
In the case of A26C C31G G35C A39C, the self-cleavage is reported as 0.02.
In the case of U28A G30A A41C, the self-cleavage is reported as 0.08.
For G27A G29C C45A, the self-cleavage was 0.27.
A26U C37A A41C gave a self-cleavage of 0.03.
Variant A25C G33C G44A has a self-cleavage of 0.01.
Variant U28C G36A C37G A41C has a self-cleavage of 0.01.
G27U U43A G44A gave a self-cleavage of 0.07.
With A25U G29A G36A the self-cleavage was 0.04.
A26C G29U C31A U32A gave a self-cleavage of 0.06.
With A26U G27U G44U the self-cleavage was 0.17.
A26G U28G C37A showed a self-cleavage of 0.02.
Work on U28A U32A G36A yielded a self-cleavage of 0.02.
U28A G40A C42G showed a self-cleavage of 0.05.
For A24C G30U U38G C46G, the self-cleavage was 0.01.
With U28A U38A C42U C45G the self-cleavage was 0.01.
A24G G30U U32C gave a self-cleavage of 0.05.
For A24C G29U G30C, the self-cleavage was 0.26.
Variant A25U G27C C31A has a self-cleavage of 0.3.
In the case of A25C G29C G44U, the self-cleavage is reported as 0.13.
A25C G29C G44A gave a self-cleavage of 0.15.
In the case of G27C U32A C37G, the self-cleavage is reported as 0.06.
Variant U28A C37G A41G has a self-cleavage of 0.02.
G27U G35A A41C C45A gave a self-cleavage of 0.07.
Variant U28G G33U G35A U43C has a self-cleavage of 0.02.
With A25C G29A U38A the self-cleavage was 0.46.
With G27U G33C G36A A41C the self-cleavage was 0.
In the case of U28A G30C G36A C37A, the self-cleavage is reported as 0.1.
G27C G29C G30U showed a self-cleavage of 1.44.
With A25C C31G U38C the self-cleavage was 0.01.
A24U G27A A39C G44U gave a self-cleavage of 0.03.
A26U G27A C31G C45A showed a self-cleavage of 0.07.
With A25C G30A G35U C42U C45A the self-cleavage was 0.03.
A25C G29U G35A G36A U43C gave a self-cleavage of 0.04.
For G27A A39U A41C C46U, the self-cleavage was 0.06.
Variant A25U C31U G35U C45A has a self-cleavage of 0.01.
Work on A26U U32C C46A yielded a self-cleavage of 0.07.
Work on A26C U34C U38A yielded a self-cleavage of 0.06.
Work on A26U G30U U32G yielded a self-cleavage of 0.1.
U28G C31U U38A A39U C45U gave a self-cleavage of 0.3.
With A25U U38A G40U the self-cleavage was 0.11.
With A24G G30A C37A C45A the self-cleavage was 0.1.
U28C G30A U38C gave a self-cleavage of 0.43.
For A24G A25C C31A G36U U38A, the self-cleavage was 0.02.
For A26G G36C C46A, the self-cleavage was 0.05.
In the case of A25G U32C C42U, the self-cleavage is reported as 0.04.
A26C G27A C45U C46G gave a self-cleavage of 0.21.
With A26G G36A G40U the self-cleavage was 0.4.
A26C G36A C46U gave a self-cleavage of 0.12.
For A24U G29C C37U U38A, the self-cleavage was 0.01.
Variant A24U U34C G36U has a self-cleavage of 0.07.
Variant A25U G36A U43C has a self-cleavage of 0.05.
With A26U G27C A39C C42A the self-cleavage was 0.08.
Work on A24U U28C G35A yielded a self-cleavage of 0.08.
With G27C G30U G44U the self-cleavage was 0.14.
With A25C U34C G44C the self-cleavage was 0.03.
In the case of A26U C37U U43C, the self-cleavage is reported as 0.06.
With A25C G35A C37A C42A the self-cleavage was 0.05.
With A26U U32A G35U the self-cleavage was 0.02.
Work on A26U G36C U38C C42G yielded a self-cleavage of 0.
With A24G A26C C31A the self-cleavage was 0.31.
A26U C42G U43C showed a self-cleavage of 0.04.
U28A G33C G44C gave a self-cleavage of 0.05.
G27A G40U A41C gave a self-cleavage of 0.13.
In the case of A26U A39C U43C, the self-cleavage is reported as 0.06.
With G27U G40A C46G the self-cleavage was 0.26.
Work on G27A G29U U38A yielded a self-cleavage of 0.16.
G27C G29A G33U U34A G40A showed a self-cleavage of 0.05.
For U28C G30C G33A C42A C46G, the self-cleavage was 0.
For A26U G33U A41G, the self-cleavage was 0.02.
With A24U A26U G40C G44A the self-cleavage was 0.02.
In the case of A24G G35C C37A, the self-cleavage is reported as 0.18.
In the case of G27U G33A A41C, the self-cleavage is reported as 0.04.
Variant G27U U28G G36U A41U has a self-cleavage of 0.05.
Variant G27U G29A C31U has a self-cleavage of 1.34.
For A26U G33U G36A C42A, the self-cleavage was 0.05.
Variant G27C G30A C46A has a self-cleavage of 0.72.
In the case of A26C G36U U38A G40U, the self-cleavage is reported as 0.03.
In the case of A24G A26U G27U G29A G35U, the self-cleavage is reported as 0.04.
With G27U C37A C42A U43G the self-cleavage was 0.01.
In the case of A24G C31A G35U C46G, the self-cleavage is reported as 0.05.
Work on A25U G29A C42G yielded a self-cleavage of 0.02.
A26C U32C C42U showed a self-cleavage of 0.11.
A25C A26C C46U showed a self-cleavage of 0.84.
Work on G27C G44C C46A yielded a self-cleavage of 0.09.
U28A A41U G44A showed a self-cleavage of 0.42.
With A26U U32C G40A G44U the self-cleavage was 0.03.
Variant U28G G29U G33C C37U has a self-cleavage of 0.05.
A24G A39G C46U gave a self-cleavage of 0.06.
With G27U G36U G44A the self-cleavage was 0.03.
A25C G40U G44A showed a self-cleavage of 0.01.
With A24U A39G C42U C46G the self-cleavage was 0.09.
With U28G C31A G35A U43A the self-cleavage was 0.03.
Work on A24U A25C G40C yielded a self-cleavage of 0.18.
For G27U G33A G36C C42A, the self-cleavage was 0.04.
G27C A39U C46G gave a self-cleavage of 0.19.
In the case of U28A U34C C46G, the self-cleavage is reported as 0.11.
A24U A26G A41C gave a self-cleavage of 0.05.
With G27U U32C G44A the self-cleavage was 0.05.
In the case of U28A C31U U32A G36U G40C C46U, the self-cleavage is reported as 0.03.
With A24G G27C C31U the self-cleavage was 0.01.
With G27U G35U G40C the self-cleavage was 0.2.
G27A A39G G44U showed a self-cleavage of 0.01.
A26U G30C G36U gave a self-cleavage of 0.07.
Variant G27U C31A A41U has a self-cleavage of 0.1.
In the case of G27U C37A C42U, the self-cleavage is reported as 0.19.
A24G A25C C31G gave a self-cleavage of 0.01.
In the case of A25C G33A C42U C45U, the self-cleavage is reported as 0.03.
In the case of A26C G33C G35A, the self-cleavage is reported as 0.06.
Work on G27C G30U U32G yielded a self-cleavage of 0.05.
For A24G U28A G40A, the self-cleavage was 0.15.
For A25G G36C U43C, the self-cleavage was 0.02.
Work on A25U G27U C37A U38G G44A yielded a self-cleavage of 0.01.
For U28G G44C C45A, the self-cleavage was 0.04.
For A24G G36U C46A, the self-cleavage was 0.05.
In the case of A25G G27A G44U, the self-cleavage is reported as 0.25.
For A25C U32G G36C, the self-cleavage was 0.08.
A26G U28G C42U gave a self-cleavage of 0.06.
Variant U28A C37G C45A has a self-cleavage of 0.21.
U28C G35U G44U C45A gave a self-cleavage of 0.04.
For U28C C31G U32A, the self-cleavage was 0.03.
For A26C G35A G40U, the self-cleavage was 0.02.
With G27U C31G U43A the self-cleavage was 0.19.
With U28A A39G A41C the self-cleavage was 0.
Work on A26U G40A C45U yielded a self-cleavage of 0.04.
A24U A26C C31A showed a self-cleavage of 0.22.
U28A G35U C45A showed a self-cleavage of 0.
A26U U38A C45A gave a self-cleavage of 0.04.
With A26U A39G C42A G44U the self-cleavage was 0.
With A25G U32C G33U the self-cleavage was 0.05.
In the case of A24G C31U C46G, the self-cleavage is reported as 0.05.
For A25C G30C G40A, the self-cleavage was 0.14.
Work on U28C G30U G40C yielded a self-cleavage of 0.03.
Variant A25U G27U C45A has a self-cleavage of 1.54.
Variant A26G U38G G44U has a self-cleavage of 0.01.
For A24U A25U G40A C45A, the self-cleavage was 0.08.
Work on G27A G33C C46G yielded a self-cleavage of 0.08.
In the case of A26U G40A A41G, the self-cleavage is reported as 0.18.
In the case of A26C G29A U38A C46U, the self-cleavage is reported as 0.55.
With A26G G33U U34G the self-cleavage was 0.02.
Work on A26U G27U G35U C45U yielded a self-cleavage of 0.01.
With A26U G29U C31G the self-cleavage was 0.04.
In the case of A24U U28C U32A, the self-cleavage is reported as 0.08.
For A24U C31A C42G, the self-cleavage was 0.06.
A25G A41G G44U gave a self-cleavage of 0.06.
Work on A25U U34G A41U yielded a self-cleavage of 0.06.
In the case of G27C U34C C42A, the self-cleavage is reported as 0.09.
With A25C G27C U32G the self-cleavage was 0.11.
In the case of G27A G33A G35A, the self-cleavage is reported as 0.08.
A25C C31U G33C gave a self-cleavage of 0.03.
Variant U28G G30U U38G has a self-cleavage of 0.04.
In the case of G27U G29A A39G, the self-cleavage is reported as 0.06.
In the case of U28A A41C C46A, the self-cleavage is reported as 0.03.
Variant A24U G27U G40U has a self-cleavage of 0.14.
With G27A U38G C45A the self-cleavage was 0.01.
With A24G G29C G30A C37A A41C the self-cleavage was 0.02.
U28G G33A U38G C42G gave a self-cleavage of 0.02.
G27C G29A U34C gave a self-cleavage of 0.1.

— the RNAGym collection of RNA variant scans (doi:10.7554/elife.90254)
